# Where a name gives a salt, the structure may show the parent alone. ± gives the standard deviation of the averaged measurements. In all, about 3,200 compounds were measured (“nuclei count (viability) relative to DMSO”: median about 99, lowest 2% from about 16 on). Some of the results follow.
# Tested on: U2OS
# Assay: nuclei count (viability) relative to DMSO (% of DMSO); higher = more viable cells
# Settings: 10 µM; 24 h
# Experimental: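 Primary image-based screen in U2OS cells: compounds at 10 uM for 24 h, then a 1 h o-propargyl-puromycin (OPP) pulse, click labelling, and high-throughput microscopy. Mean cytoplasmic OPP intensity and nuclei count were normalised to DMSO wells within each plate (DMSO = 100) and averaged over triplicate plates.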
row,SMILES,nuclei count
1,FC(F)(F)c1cccc(-c2noc(-c3cc(-c4ccccc4)c(C(F)(F)F)s3)n2)c1,98.2
2,C/C=C1\[C@H]2C=C(C)C[C@]1(N)c1ccc(=O)[nH]c1C2 [(-)-Huperzine A],96.9
3,CN1CCN(C2CCN(C(=O)Nc3cc(Oc4ccc(NC(=O)C5(C(=O)Nc6ccc(F)cc6)CC5)c(F)c4)ccn3)CC2)CC1 [Golvatinib (E7050)],75.5 ± 3.9
4,Cc1cccc(C(=O)NCN2CCN(c3ccccc3C#N)CC2)c1,88.6
5,CN(C)CCCN1c2ccccc2CCc2ccccc21 [Imipramine hydrochloride],87.2
6,C[C@H]1COc2c(N3CCN(C)CC3)c(F)cc3c(=O)c(C(=O)O)cn1c23 [Levofloxacin (Levaquin)],86
7,NC(CO)C(=O)NNCc1ccc(O)c(O)c1O (stereo not given) [Benserazide hydrochloride],100
8,CCCC(=O)OCOC(=O)C1=C(C)NC(C)=C(C(=O)OC)C1c1cccc(Cl)c1Cl (stereo not given) [Cleviprex (Clevidipine)],97.4
9,CCN(CC)CCCCN1c2ccccc2Oc2ccc(Cl)cc21 [10-DEBC hydrochloride],93.7
10,NCCC[C@H](N)CC(=O)N[C@H]1CNC(=O)[C@H]([C@H]2C[C@H](O)NC(N)=N2)NC(=O)/C(=C/NC(N)=O)NC(=O)[C@H](CO)NC(=O)[C@H](CO)NC1=O [Viomycin sulfate],107
11,O=c1[nH]cnc2c1ncn2[C@H]1CC[C@@H](CO)O1 [Didanosine],88
12,CN1CCN(c2ccc(OC(F)(F)F)c(Nc3ncc4c(n3)-c3c(c(C(N)=O)nn3CCO)CC4)c2)CC1,25.3
13,Nc1nc(O)c2ncn(CCC(CO)CO)c2n1 [Penciclovir],104
14,Fc1ccc([C@@H]2CCNC[C@H]2COc2ccc3c(c2)OCO3)cc1 [Paroxetine maleate],97.8
15,Fc1ccc([C@@H]2CCNC[C@H]2COc2ccc3c(c2)OCO3)cc1 [Paroxetine Hydrochloride],91.4
16,NCC[C@H](O)C(=O)N[C@@H]1C[C@H](N)[C@@H](O[C@H]2O[C@H](CN)[C@@H](O)[C@H](O)[C@H]2O)[C@H](O)[C@H]1O[C@H]1O[C@H](CO)[C@@H](O)[C@H](N)[C@H]1O [Amikacin sulfate],98.7
17,NCC[C@H](O)C(=O)N[C@@H]1C[C@H](N)[C@@H](O[C@H]2O[C@H](CN)[C@@H](O)[C@H](O)[C@H]2O)[C@H](O)[C@H]1O[C@H]1O[C@H](CO)[C@@H](O)[C@H](N)[C@H]1O [Amikacin hydrate],97.8 ± 8.5
18,CCCCCCN(CCCCCC)C(=O)Cc1c(-c2ccc(Cl)cc2)[nH]c2ccc(Cl)cc12,78.7
19,COc1ccc(CCN(C)CCCOc2ccc(S(=O)(=O)c3c(C(C)C)c4ccccc4n3C)cc2)cc1OC,27.4
20,O=C1c2cccc3c2[C@H](CCC3)CN1[C@@H]1CN2CCC1CC2 [Palonosetron HCl],101
21,O=C(O)CSCC(=O)NC1CCSC1=O (stereo not given) [Erdosteine],95.4
22,Cc1cc2c(F)c(Oc3ncnn4cc(OC[C@@H](C)O)c(C)c34)ccc2[nH]1,89.3 ± 14
23,COc1cc(/C=C/C(=O)CC(=O)/C=C/c2ccc(O)c(OC)c2)ccc1O [Curcumin],58.5 ± 14
24,CCC(=O)NC1CCc2cccc(OC)c2C1 (stereo not given),100
25,OCCN1C[C@H](O)[C@@H](O)[C@H](O)[C@H]1CO [Miglitol],92.9
26,OCCN1C[C@H](O)[C@@H](O)[C@H](O)[C@H]1CO [Miglitol (Glyset)],100
27,Cc1c(CCOc2ccc(C(=O)O)cc2)c2cc(Cl)ccc2n1C(c1ccccc1)c1ccccc1,103

row,SMILES,nuclei count
1,S=C(NCc1ccc2c(c1)OCO2)N1CCN(c2ncnc3c2oc2ccccc23)CC1 [Amuvatinib (MP-470)],96
2,N[C@@H](Cc1cc(-c2ccc(Cl)cc2Cl)cc(CP(=O)(O)O)c1O)C(=O)O,75.8
3,CC1(C)CCC2=C(O1)c1ccccc1C(=O)C2=O,47.5
4,CC(=O)OCC[N+](C)(C)C [Acetylcholine chloride],93.9
5,C/C(=N\NC(=O)C1C(=O)NCC1c1ccccc1)c1cccc(Br)c1 (stereo not given),107
6,NCCCCCCCCCCNS(=O)(=O)c1cccc2c(Cl)cccc12 [A-7 hydrochloride],81.3
7,"Cn1cnc([N+](=O)[O-])c1Sc1ncnc2[nH]cnc12 [Azathioprine (Azasan, Imuran)]",97.5
8,Cn1cnc([N+](=O)[O-])c1Sc1ncnc2[nH]cnc12 [Azathioprine],103
9,CC(=O)Oc1cc2c(s1)CCN(C(C(=O)C1CC1)c1ccccc1F)C2 (stereo not given) [Prasugrel (Effient)],98.4
10,CC(C)C(=O)Nc1ccc([N+](=O)[O-])c(C(F)(F)F)c1 [Flutamide],94.2
11,O=C(/C=C/N1C[C@H]2C[C@@H]1CN2c1ccccn1)c1ccccc1O,103
12,CC1COc2c(N3CCN(C)CC3)c(F)cc3c(=O)c(C(=O)O)cn1c23 (stereo not given) [Ofloxacin],105
13,O=C(O)CCCC[C@@H]1SC[C@@H]2NC(=O)N[C@@H]21 [Biotin],105
14,O=C(O)CCCC[C@@H]1SC[C@@H]2NC(=O)N[C@@H]21 [Biotin (Vitamin B7)],106
15,COCC(=O)Nc1c(I)c(C(=O)NCC(O)CO)c(I)c(C(=O)N(C)CC(O)CO)c1I (stereo not given) [Iopromide],106
16,"C[C@@]1(O)CCOC(=O)C1 [Mevalonic-D, L acid lactone]",104
17,CCOC(=O)Nc1ccc(NCc2ccc(F)cc2)nc1N [Flupirtine maleate],98
18,COC(=O)C1=C(C)NC(C)=C(C(=O)OC(C)C)C1c1cccc2nonc12 (stereo not given) [Isradipine],102 ± 2.5
19,O=C1OC(OC(=O)c2cccnc2Nc2cccc(C(F)(F)F)c2)c2ccccc21 (stereo not given) [Talniflumate],84
20,Cn1c(Nc2ccc(C(F)(F)F)cc2)nc2cc(Oc3ccnc(-c4ncc(C(F)(F)F)[nH]4)c3)ccc21,94.8
21,COc1cc(OC)c(C(=O)CCCCN2CCC3(CC2)NC(=O)NC3=O)cc1NS(=O)(=O)c1ccc(C(F)(F)F)cc1,53.6
22,C[C@H](CCC(=O)O)[C@H]1CC[C@H]2[C@@H]3CC[C@@H]4C[C@H](O)CC[C@]4(C)[C@H]3CC[C@]12C [Lithocholic acid],99.5 ± 6.5
23,N[C@@H](CSCCCO)C(=O)O [Fudosteine],110
24,CC(=O)SCC(Cc1ccccc1)C(=O)NCC(=O)OCc1ccccc1 (stereo not given) [Racecadotril],96.8
25,Nc1nc2[nH]cc(CCc3ccc(C(=O)N[C@@H](CCC(=O)O)C(=O)O)cc3)c2c(=O)[nH]1 [Pemetrexed (Alimta)],75.8
26,CCN1CCN(Cc2ccc(Nc3ncc(F)c(-c4cc(F)c5nc(C)n(C(C)C)c5c4)n3)nc2)CC1,37.8
27,COc1ccc(C(=O)c2ccccc2O)c(O)c1 [Dioxybenzone],97.3

row,SMILES,nuclei count
1,CC(C)(C)NC[C@H](O)COc1ccccc1C1CCCC1 [Penbutolol sulfate],108
2,CC(C)Cc1ccc(C(C)C(=O)O)cc1 (stereo not given) [Ibuprofen Lysine (NeoProfen)],101
3,CN(C(=O)c1c(O)c2ccccc2n(C)c1=O)c1ccccc1 [Linomide],87.9
4,O=C(O)C1(C(=O)O)CCC1.[NH2-].[NH2-].[Pt+2] [Carboplatin],100
5,COc1ccc(CC(=O)NC(/N=C(\NC#N)Nc2cccc3ncccc23)C(C)(C)C)cc1OC (stereo not given),103
6,O=c1c(O)c(-c2ccc(O)c(O)c2)oc2cc(O)cc(O)c12 [Quercetin],90.7 ± 6.4
7,O=c1c(O)c(-c2ccc(O)c(O)c2)oc2cc(O)cc(O)c12 [Quercetin (Sophoretin)],83.8
8,O=C(Nc1ccc([N+](=O)[O-])cc1O)Nc1ccccc1Br,23.5
9,Cc1cnc(C(=O)O)c[n+]1[O-] [Acipimox],111
10,CC(=O)Oc1ccccc1C(=O)Oc1cccc(CO[N+](=O)[O-])c1,87.8
11,COc1ccc2cccc(N3CCN(CCNC(=O)c4ccc(F)cc4)CC3)c2c1,104
12,O=C(O)[C@H]1/C(=C/CO)O[C@@H]2CC(=O)N21 [Clavulanate potassium salt],107
13,O=C(OCCOCCO)c1ccccc1Nc1cccc(C(F)(F)F)c1 [Etofenamate],89.4
14,NS(=O)(=O)c1cc2c(cc1Cl)NC(CC1CCCC1)NS2(=O)=O (stereo not given) [Cyclopenthiazide],108
15,O=C(O)CCCCC1CCSS1 (racemic) [DL-?-Lipoic acid],106
16,CC(C)(C)NCC(O)c1cc(O)cc(O)c1 (stereo not given) [Terbutaline hemisulfate],104
17,CCOC(=O)[N-]c1c[n+](N2CCOCC2)no1 [Molsidomine],97.4
18,CC[N+](CC)(CC)CCOc1cccc(OCC[N+](CC)(CC)CC)c1OCC[N+](CC)(CC)CC [Gallamine triethiodide],103
19,C#C[C@]1(O)CC[C@H]2[C@@H]3CCC4=C(CCC(=O)C4)[C@H]3CC[C@@]21C [Norethynodrel],90
20,C=C(c1ccc(C(=O)O)cc1)c1cc2c(cc1C)C(C)(C)CCC2(C)C [Bexarotene],103
21,c1ccc(-c2n[nH]c3c2oc2ccccc23)cc1,100
22,CC/C(=C(\c1ccccc1)c1ccc(OCCN(C)C)cc1)c1ccccc1 [Tamoxifen],91.7
23,CC/C(=C(\c1ccccc1)c1ccc(OCCN(C)C)cc1)c1ccccc1 [Tamoxifen citrate],100 ± 4.3
24,CCc1oc2ccccc2c1C(=O)c1cc(Br)c(O)c(Br)c1 [Benzbromarone],114
25,c1ccc2oc(C3=NCCN3)cc2c1 [2-BFI hydrochloride],100
26,NCc1ccc(S(N)(=O)=O)cc1 [Mafenide hydrochloride],101

# Reference: the supplement of paper PMC8183993
